In paper PMC7819943, “Rice protein-binding microarrays: a tool to detect cis-acting elements near promoter regions in rice” one finds binding signal data, which are given here for 42 sequences.

Some of the results follow.

This test addresses T1, OsWOX13 (Oryza sativa, UniProt Q5QMM3 1-267).
T1 sequence: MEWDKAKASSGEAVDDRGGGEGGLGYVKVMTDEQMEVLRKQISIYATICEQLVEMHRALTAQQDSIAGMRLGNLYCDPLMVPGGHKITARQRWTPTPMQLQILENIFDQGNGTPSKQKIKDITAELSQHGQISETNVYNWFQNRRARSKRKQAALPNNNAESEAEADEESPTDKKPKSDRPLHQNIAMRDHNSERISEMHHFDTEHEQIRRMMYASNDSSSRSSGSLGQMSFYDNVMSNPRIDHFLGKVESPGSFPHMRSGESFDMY
Description: protein-binding microarray (RPBM); PBS, 2% BSA, 51.3 ng/ul salmon testes DNA, 50 uM zinc acetate, 200 nM TF, 25 C, 1 h; high values mean tight binding. To be noted: protein: recombinant; tags: N-terminal polyhistidine and DsRed monomer fusion (pET32a); label: CyDye5-dUTP incorporated in the synthesized complementary strand; 3' TTTTT single-stranded linker to array surface; dsDNA, one strand shown. Put shortly: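 Using Ni–NTA, transcription factors fused N-terminally to polyhistidine and DsRed were purified after expression in E. coli BL21-CodonPlus. These were incubated at 200 nM with a blocked, double-stranded custom Agilent array for 1 h at 25 °C in a buffer containing 50 µM zinc acetate, and the array was washed. The binding signal is per-feature fluorescence intensity (arbitrary units) on an Axon 4000B scanner.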
Take “ATGAATTGGATTAGCACTACTCCAGAAAGTGATTATGGTTCGGAGTCACCTAGTGCAG”: the binding signal is 7850 fluorescence intensity (a.u.).

Take “TCGTTAATTTTCTTGCGAGAGGGAGGATGGCACGTGGGTTCGGAGTCACCTAGTGCAG”: the binding signal is 16000 fluorescence intensity (a.u.).

Regarding “ATTAACTTTTAAACATACATTTAATTAATTTTATTATTCACGGAGTCACCTAGTGCAG”, the binding signal was 8370 fluorescence intensity (a.u.).

Consider “ATAATATTGTAAATGATGCGTAATTGCTAGTGAGTGAAGACGGAGTCACCTAGTGCAG”, for which the binding signal was 12900 fluorescence intensity (a.u.). The value for “CATGATATAACTGTAACACATCAAGTTGTCTGACCATATCCGGAGTCACCTAGTGCAG” was 7650 fluorescence intensity (a.u.); that for “ACTATTGATTATAATTCTTGAAGCAATCTCATATTTGTAACGGAGTCACCTAGTGCAG” was 21100 fluorescence intensity (a.u.); that for “CCTTAATTTTCAGTGTTAGTAATTTTCATTAACTAATTCTCGGAGTCACCTAGTGCAG” was 16200 fluorescence intensity (a.u.). The value for “ATTTAAATGAGATGATTGATGGGGCAATTAGTACTCTAGACGGAGTCACCTAGTGCAG” was 38600 fluorescence intensity (a.u.); that for “GCGCAATTTATTTTGAAATGACTGTAAAATCACAAGTACACGGAGTCACCTAGTGCAG” was 7730 fluorescence intensity (a.u.). The value for “CCCTTAATTTGTTTTGTACAATATGAGTGGAAGGGAGTGCCGGAGTCACCTAGTGCAG” was 32800 fluorescence intensity (a.u.).

With “CGAGGAATTGATAAACTGACTTCACTCTCATTATATTTCGCGGAGTCACCTAGTGCAG”, the binding signal was 20300 fluorescence intensity (a.u.). The value for “AGTATAATTGAAGTGTAATTACATGTAGCTGCACTATAACCGGAGTCACCTAGTGCAG” was 37700 fluorescence intensity (a.u.); that for “GACTTTAAGATTGAAAACAACACCCCTTGCTACTGCAGTACGGAGTCACCTAGTGCAG” was 7450 fluorescence intensity (a.u.); that for “TTGTTCTTTCGTCATTAGATTGGTCCCATAAAAGATGGGACGGAGTCACCTAGTGCAG” was 3690 fluorescence intensity (a.u.). Turning to “TGCACAGATTGAGACTAAATTAGGAGACAAATCTTTTAAGCGGAGTCACCTAGTGCAG”, the binding signal is 32300 fluorescence intensity (a.u.).

“TCCTTAATAGAGAAACCAAATTCATCAAACTCAATGGAACCGGAGTCACCTAGTGCAG”: the binding signal is 13200 fluorescence intensity (a.u.). The value for “TAGATTGGCTAGTTAGTTTGACAGAGTGGTTAGTGAAGGACGGAGTCACCTAGTGCAG” was 24900 fluorescence intensity (a.u.). The value for “ATGTGATGGATGTTATTCTTGGCCCGATGGAGATAACTTTCGGAGTCACCTAGTGCAG” was 8500 fluorescence intensity (a.u.); that for “AGATAGCTAATTACATAGGGAAAGAGTGGAAGCAATGTGGCGGAGTCACCTAGTGCAG” was 6340 fluorescence intensity (a.u.); that for “TCTAATTGAAATTATTGTGTTTATGTATAAAGACAAATACCGGAGTCACCTAGTGCAG” was 24900 fluorescence intensity (a.u.). The value for “TTATGTAATTATCATTTATTTTATTGTGACTTGATTCGTCCGGAGTCACCTAGTGCAG” was 24800 fluorescence intensity (a.u.); that for “TCACAACGATTTACGGTTAATTATTATTTCAGTGGTAGACCGGAGTCACCTAGTGCAG” was 6110 fluorescence intensity (a.u.). In the case of “CGGTTCATTAACACATGATTAATTAAGTATTAGTTAAATTCGGAGTCACCTAGTGCAG”, the binding signal is 17900 fluorescence intensity (a.u.). The value for “TTGACAAAATGAATAAATTTGGACTTGGGCTGCGTTCGATCGGAGTCACCTAGTGCAG” was 6560 fluorescence intensity (a.u.); that for “CTCTAGTTCAGCTGTTTAAACCCACAGTTTAACATTGCTTCGGAGTCACCTAGTGCAG” was 7900 fluorescence intensity (a.u.); that for “CATTCTAATTAGCAATGGTCACCACGAATGATTAATGTAGCGGAGTCACCTAGTGCAG” was 28200 fluorescence intensity (a.u.). Regarding “TGTTAAATTGCTGTTAAATTCTTAAACAACTCAAACATCGCGGAGTCACCTAGTGCAG”, the binding signal was 30800 fluorescence intensity (a.u.). The value for “AGCTCTATAATTTTACAATTTAAAATTATATTATATAAAGCGGAGTCACCTAGTGCAG” was 20400 fluorescence intensity (a.u.); that for “TCACACATAATTGACTTCACCTGTAAAACAAGTGAGCGAACGGAGTCACCTAGTGCAG” was 19600 fluorescence intensity (a.u.); that for “GTATTTAATTAGCTCCTCGTCTTGTTCTGCTAAGCTACTACGGAGTCACCTAGTGCAG” was 20400 fluorescence intensity (a.u.). The value for “ATCAAAACATAGTATCAATTATCAAGAACCGCCGCACCACCGGAGTCACCTAGTGCAG” was 3580 fluorescence intensity (a.u.). The value for “GTATACAGGAGATCGATTAATTAATACTCCAAATTACACACGGAGTCACCTAGTGCAG” was 3370 fluorescence intensity (a.u.).

On to “ATGGGAAAGTAAATCAATTAACATATATACTCGTTTAAAACGGAGTCACCTAGTGCAG”, for which the binding signal was 9870 fluorescence intensity (a.u.). The value for “GAACCCTGATATAATCACATTTTCAACTGTGATATCCGCTCGGAGTCACCTAGTGCAG” was 3540 fluorescence intensity (a.u.). The value for “GACAACGACATCAATCAACGAAGCGCTGGCAGAGACGGCGCGGAGTCACCTAGTGCAG” was 15800 fluorescence intensity (a.u.); that for “ACAAATTGTAATAACTCAGCGAGTAGAAATTTTAACAATGCGGAGTCACCTAGTGCAG” was 10500 fluorescence intensity (a.u.); that for “GCTCTAAGGGTGGGTTTTGATGGGAGGTTTTGGATGGATACGGAGTCACCTAGTGCAG” was 6370 fluorescence intensity (a.u.). The value for “GTATGGATTAGGTGGTATGATTGAGATGCCACACTGCCTTCGGAGTCACCTAGTGCAG” was 25900 fluorescence intensity (a.u.). Regarding “TACTGATGATCGATTAAAATGCTAACCCGGATATGACGAACGGAGTCACCTAGTGCAG”, the binding signal was 6570 fluorescence intensity (a.u.). The value for “CAAAACTAATTTTCTTGGCGGGTTTAGGTGATGTGGCATCCGGAGTCACCTAGTGCAG” was 21700 fluorescence intensity (a.u.); that for “TCTTAATTGAAAGAGTTTTCATCATGTCTTTCAGTCACCACGGAGTCACCTAGTGCAG” was 53900 fluorescence intensity (a.u.). The value for “AGTTTTACAATAAATTTACTGTTATAAATATACATTTAACCGGAGTCACCTAGTGCAG” was 6140 fluorescence intensity (a.u.).
